Results published in the supplement of paper PMC12645437, “Orthogonal IMiD-Degron Pairs Induce Selective Protein Degradation in Cells” (ACS Chemical Biology, 2025).
The list shows a part of the results.

molecular target: no compound (DMSO); test: log2 fold change of degron read counts, EGFP-low vs EGFP+ sorted cells; higher = lower degron-EGFP level without compound (poor expression or instability); conditions: compound: DMSO control; 18 h
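Note: jurkat cells carrying a lentiviral library of mutant zinc finger degrons fused to EGFP plus mCherry, mCherry+ cells FACS sorted, degron abundance counted by next-generation sequencing.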

Row | Sequence | log2 fold change of degron read counts
1 | LKCEICGFCCTQKGNLLRHIKL | -0.408
2 | FHCDICGAHFTQKGNLLRHIKL | -1.72
3 | FYCPICGHIFTQKGNLLRHIKL | 1.08
4 | FFCDVCGARFTQKGNLLRHIKL | -1.31
5 | FHCPICGAYFTQKGNLLRHIKL | 0.706
6 | LSCNQCGFWCTQKGNLLRHIKL | 1.57
7 | FECNQCGRTFTQKGNLLRHIKL | -2.65
8 | LGCPICGFCCTQKGNLLRHIKL | 1.42
9 | FICEQCGARFTQKGNLLRHIKL | -1.27
10 | FSCPICGARFTQKGNLLRHIKL | -0.271
11 | FNCNVCGAYFTQKGNLLRHIKL | 0.054
12 | FACEQCGAVFTQKGNLLRHIKL | -1.09
13 | LVCNQCGFNCTQKGNLLRHIKL | 0.175
14 | FDCPQCGAWFTQKGNLLRHIKL | -0.197
15 | FRCEICGATFTQKGNLLRHIKL | -1.36
16 | FKCPVCGAFFTQKGNLLRHIKL | 0.536
17 | FLCPICGAKFTQKGNLLRHIKL | -0.392
18 | FCCPICGAAFTQKGNLLRHIKL | 0.262
19 | FICNQCGAWFTQKGNLLRHIKL | 0.67
20 | FICPICGRSFTQKGNLLRHIKL | -0.401
21 | FCCEICGAQFTQKGNLLRHIKL | -1.29
22 | FRCPICGHMFTQKGNLLRHIKL | -0.238
23 | LACEICGFWCTQKGNLLRHIKL | 1.03
24 | FVCEVCGAGFTQKGNLLRHIKL | -2.34
25 | FDCNQCGRIFTQKGNLLRHIKL | 0.834

Row | Sequence | log2 fold change of degron read counts
26 | FQCPICGATFTQKGNLLRHIKL | -0.326
27 | FICNQCGRHFTQKGNLLRHIKL | -0.622
28 | FTCPICGHLFTQKGNLLRHIKL | -0.183
29 | LNCPICGFRCTQKGNLLRHIKL | 0.875
30 | FHCPICGHCFTQKGNLLRHIKL | -0.0489
31 | FMCEICGRRFTQKGNLLRHIKL | -1.44
32 | FECPICGRYFTQKGNLLRHIKL | -0.188
33 | LFCEICGFVCTQKGNLLRHIKL | 0.596
34 | FLCDQCGALFTQKGNLLRHIKL | -0.363
35 | FQCEICGRPFTQKGNLLRHIKL | -1.34
36 | FLCEQCGARFTQKGNLLRHIKL | -1.24
37 | FRCDICGATFTQKGNLLRHIKL | -2.13
38 | LCCPICGFNCTQKGNLLRHIKL | 0.637
39 | FYCEICGHLFTQKGNLLRHIKL | -0.184
40 | FFCNQCGAEFTQKGNLLRHIKL | -0.213
41 | FLCPQCGAMFTQKGNLLRHIKL | 0.0354
42 | FYCEQCGAPFTQKGNLLRHIKL | -0.624
43 | FQCDICGAEFTQKGNLLRHIKL | -0.842
44 | FDCSVCGHFFTQKGNLLRHIKL | 1.66
45 | FRCEICGRTFTQKGNLLRHIKL | -1.72
46 | FDCPICGHYFTQKGNLLRHIKL | -0.442
47 | FFCNQCGALFTQKGNLLRHIKL | 0.993
48 | FGCDVCGAAFTQKGNLLRHIKL | -1.24
49 | FACDQCGAAFTQKGNLLRHIKL | -1.7
50 | FECEICGRNFTQKGNLLRHIKL | -1.35
